The whole screen tested about 330,000 compounds, of which about 4,200 (1.3%) were called active. The inconclusive results got no clear call from the source; some entries with a clear call stand among them for comparison. Calls follow the shape of the dose curve; as a rule, active = well fitted activation curve with a large enough effect; inconclusive = small, poorly fitted or top-dose-only effect; inactive = no such curve, though single readings can be large or run the other way. Potencies of inconclusive entries are doubtful fits and often do not repeat. Some structures have more than one record in an assay (separate samples or runs), and their calls can disagree.
experiment: qHTS screen for small molecules that induce genotoxicity in human embryonic kidney (HEK293T) cells expressing luciferase-tagged ELG1; details: HEK293T ELG1-luciferase reporter, luminescence, 16 h; series mostly up to 46 µM; also: nearly all actives have a fitted effect of over 60% in size
Summary of the method: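 Screening used a luciferase reporter fused to human ELG1 in HEK293T cells. Luminescence was read on a CCD plate imager after 16 hr exposure and 30 min ONE-Glo incubation.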
Potency is read from the fitted curve at half-maximal effect; tags tell the direction and shape of the fitted curve.

Row | SMILES | Potency
1 | Fc1ccccc1NC(=S)N/N=C/c1ccccc1Br | active: 4.47 µM
2 | CCOc1ccc(CC(=O)Nc2ccc(-c3ccc4nnc(C)n4n3)cc2)cc1 | active: 20.6 µM
3 | COc1ccc(NC(=S)c2ccccc2)cc1 | inconclusive: 18.4 µM [activator, partial curve]
4 | Nc1c(-c2ccccc2)n[nH]c1-c1ccccc1 | inconclusive: 18.4 µM [activator, partial curve]
5 | CN1N=C(C(=O)N2CCc3c([nH]c4ccccc34)C2c2ccccc2Cl)CCC1=O (centres undefined) | inconclusive: 14.6 µM [activator, partial curve, poor fit]
6 | CCOc1ccc(C(=O)N/N=C/c2ccccc2[N+](=O)[O-])cc1 | inconclusive: 5.17 µM [activator, partial curve]
7 | CC(=O)Nc1cc(C)nn1-c1nc2ccccc2s1 | inconclusive: 11.6 µM [activator, partial curve, poor fit]
8 | CCOc1cc(C2NN=C(c3ccc(C)cc3)S2)ccc1O (centres undefined) | inconclusive: 18.4 µM [activator, single point]
9 | OC(CNCc1ccco1)Cn1c2ccc(Br)cc2c2cc(Br)ccc21 (centres undefined) | inactive
10 | NC(=O)C1CCN(C(=S)c2ccc(-c3ccc(Br)cc3)o2)CC1 | active: 10.3 µM
11 | COc1ccc(NC(=O)Cn2nnc(C(=O)Nc3ccc(F)c(Cl)c3)c2N)cc1OC | inconclusive: 11.6 µM [activator, partial curve, poor fit]
12 | N#Cc1nc(-c2ccccc2Cl)oc1N1CCCCC1 | inconclusive: 18.4 µM [activator, partial curve, poor fit]
13 | O=S1(=O)CCOC[C@H](c2ccccc2)N1Cc1cccc(Cl)c1 | inactive
14 | O=C(NCC1CCCO1)c1nn2cccnc2c1Cl (centres undefined) | inconclusive: 11.6 µM [activator, partial curve, poor fit]
15 | Cc1c(N=C(N)/N=C(\N)Nc2ccc(Br)cc2)c(=O)n(-c2ccccc2)n1C | inactive
16 | CCC(=O)NCCc1nc2cc(NC(=O)c3ccccc3Cl)ccc2n1C | inconclusive: 23.1 µM [activator, partial curve, poor fit]
17 | Fc1cc(F)c2nc(N3CCOCC3)sc2c1 | inconclusive: 32.6 µM [activator, partial curve, poor fit]
18 | Cc1cc2oc(=O)cc(CN(C)Cc3ccccc3F)c2cc1Cl | inconclusive: 20.6 µM [activator, partial curve, poor fit]
19 | CCn1c(=O)cc(OCC(=O)NCCC(C)C)c2ccccc21 | inconclusive: 29.1 µM [activator, single point]
